Measured values: the supplement of paper PMC11417369
Some of the results follow.

System: PfSIP2 AP2 domain 1 (GST-tagged)
Experiment: gcPBM binding intensity (ln(normalized median fluorescence intensity)); higher = stronger DNA binding
How it was run: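 Probes on an Agilent 4 × 180k array were primer-extended, double-stranded and 36 bp long, taken from intergenic genomic regions, with negative controls added. GST-tagged P. falciparum DNA-binding domains from E. coli, about 25 μg on average, were applied to the array for 1 h in 1× PBS containing 1% milk, 0.2 mg/ml BSA, 0.5% salmon testes DNA and 0.03% Triton X-100. Binding intensity, obtained after Alexa488 anti-GST antibody detection and a 488 nm scan, is the highest Masliner-normalised natural-log median intensity across replicate spots of either probe orientation.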

In order of falling “gcPBM binding intensity (ln)” value:
1. AAAAAAAAAAAAAAAGTGCACAGTCGTTTTAAAAAA [GTGCAC_site9848]  10.7
2. TATATATATAGACACACACACACATATATATATATA [CACACA_site9366]  9.05
3. ATATATATATATAAATGTACATTTTTCAATAGTTTT [XGTACX_site7449]  8.97
4. GGTCTTCTTAATATACTGCACTGTATACGTATATAA  8.41
5. CTTATTATTATATGGGTGCTCATATTTTTCTTTTTT [GTGCAC_site9723]  8.28
6. AAGATAATATTTTCTTGTACGCATGCACATACAAAT [XGTACX_site7181]  7.78
7. GAAAGGATATATATATATATATATATAATACATTTC [GTGCAC_negctrl_site677]  7.75
8. TGCATACTTTTGTAAGTGCATAAAATCGTACCATGC  7.73
9. CACCCCCACAGACACACACACACACCCACATATATA [CACACA_site365]  7.62
10. CTTTTCTCCCTCCATAGTACAATTATAAAAATATAT [XGTACX_site3090]  7.58
11. AGATTTAAATTTATATGTACATAATATGGGCGTATA [XGTACX_site6631]  7.54
12. TGTCATTTAATTTTTTGTACGAAAAAAACATATAAA [XGTACX_site4952]  7.51
13. TTATTTTTCCGGAATAGTACATAGACGCAGATATAA [XGTACX_site6356]  7.5
14. TTCATAAAATGATATTGTACAAATAAATAATAGTAT [XGTACX_site819]  7.45
15. GAAATAATTCGATGTGCATGTAACGTTTCCCCAAAG [TGCATGCA_site122]  7.34
16. TATATATACATACATACACACATATATATATATATT [CACACA_site4110]  7.27
17. AAGGGGTAAAGAAAAACACACAAAAAATAAAAATAT [CACACA_site361]  7.26
18. TAGAAGCATGGACACACACACATACATACCCATACA [CACACA_site4916]  7.18
19. TACAGATACAGATACACACACACACCGAAATAAATA [CACACA_site4865]  7.16
20. ATTCTTATTTAAAGGTGTACTCTTAAACAGATTTTA [XGTACX_site3526]  7.15
21. AGTTGTTTTAATAATGCATGTTATTTTATTTTAATA [TGCATGCA_site168]  7.11
22. TACTTTTTATTTTCTTGTACTTAATTGTCCAGATTT [XGTACX_site4334]  7.11
23. CTCAATGTTTGCGATACATGCAAAAATTTTTAGAAT [TGCATGCA_site165]  7.1
24. AATTAAAAAAAATACACACACACATACACATATATA [CACACA_site3298]  7.1
25. CCAAAAAAAAAAAAAAGTACATAAAAACAAGAGAAT [XGTACX_site3037]  7.09
26. TGTAGATTTTGTAACACACACATATATATACATATA [CACACA_site2405]  7.08
27. CGTATTTATATAATTACACACCATATTATAATTATT [CACACA_site3760]  7.05
28. ATTAACTATCATAACACACACAGTAGACATATTTTT [CACACA_site1822]  7.04
29. ATGCAAAGTTTATAAAGTACATAAGTCAAAATAAAA [XGTACX_site1441]  7.04
30. AAAAAAAAAATATACACACACATATAAATATAAATA [CACACA_site7574]  7.01
31. TTAAAGTAGAGAAAATGTACATTTTATTAACACAAT [XGTACX_site6369]  6.99
32. TAAATTCCTACATACGCATGTACATTAAAATTTTAA [TGCATGCA_site215]  6.99
33. ACATATAATATATAATGTACAAAATTGTTAACAATA [XGTACX_site3798]  6.98
34. AAGAGAAAAATATATACACACACATAAATATATACA [CACACA_site8573]  6.98
35. TATAAATAAATAGATACACACATATATATAAATACA [CACACA_site155]  6.97
36. TCTATATCTTTCAACACACAAATTTTTTTTTCCATC [CACACA_site4238]  6.95
37. ATTTTAATATAAAATACACACTACTATTATAAATAT [CACACA_site4917]  6.93
38. ATTATATACATATATATACACACGTAGTTTCTATTT [CACACA_site8697]  6.92
39. GTACACATATAGTAATAATTTTATTATATTTTTTTG [CACACA_negctrl_site843]  6.9
40. AAATCATTTAAGAACACACAAATATTTCCATTAAAT [CACACA_site6808]  6.9
41. TACATTTCATTGTAATCATAAAAAATAAAGAAAAAA [XGTACX_negctrl_site542]  6.88
42. ACAAACATTAGGGAAGCATGCAATATTTTTTTACAT [TGCATGCA_site372]  6.8
43. GTATATATATATGTATATATTTTATTTTATTTTTAT [CACACA_negctrl_site1439]  6.77
44. GATGAAAATAGAAATACACACTAAAAAATAAAATTA [CACACA_site4764]  6.75
45. AAATAAAAAACAGTGGCACACATTATGTATCCACCT [CACACA_site3756]  6.73
